# Measurements reported in PubChem BioAssay AID588342 (National Center for Advancing Translational Sciences (NCATS), 2011).
# The campaign covered roughly 360,000 compounds. About 25,000 (6.9%) were called active. This list was built around the results that the source calls inconclusive (neither active nor inactive); the mix of calls is not that of the screen. Calls follow the shape of the dose curve; as a rule, active = well fitted inhibition curve with a large enough effect; inconclusive = small, poorly fitted or top-dose-only effect; inactive = flat fitted curve, though single readings scatter. Potencies beside an inconclusive call are fits to weak or partial responses and may not hold up.
# Target: Luciferin 4-monooxygenase (Photinus pyralis) (UniProt P08659)
# Assay: qHTS profiling assay for firefly luciferase inhibitor/activator using purifed enzyme and Km concentrations of substrates (counterscreen for miR-21 project); also: nearly all actives have a fitted effect of over 55% in size
# Details: purified FLuc, luminescence inhibition; series mostly up to 57.5 µM
# Method in brief: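 Purified P. pyralis luciferase (10nM final) with 10uM D-luciferin and 10uM ATP (Km levels) in 50mM Tris acetate pH 7.5, 10mM Mg acetate, 0.01% Tween-20, 0.05% BSA; qHTS 6-point titration, ~60 µM downward; luminescence read.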
# Potency is read from the fitted curve at half-maximal effect; tags tell the direction and shape of the fitted curve.
# Sequence of UniProt P08659 (P08659 whole entry, looked up): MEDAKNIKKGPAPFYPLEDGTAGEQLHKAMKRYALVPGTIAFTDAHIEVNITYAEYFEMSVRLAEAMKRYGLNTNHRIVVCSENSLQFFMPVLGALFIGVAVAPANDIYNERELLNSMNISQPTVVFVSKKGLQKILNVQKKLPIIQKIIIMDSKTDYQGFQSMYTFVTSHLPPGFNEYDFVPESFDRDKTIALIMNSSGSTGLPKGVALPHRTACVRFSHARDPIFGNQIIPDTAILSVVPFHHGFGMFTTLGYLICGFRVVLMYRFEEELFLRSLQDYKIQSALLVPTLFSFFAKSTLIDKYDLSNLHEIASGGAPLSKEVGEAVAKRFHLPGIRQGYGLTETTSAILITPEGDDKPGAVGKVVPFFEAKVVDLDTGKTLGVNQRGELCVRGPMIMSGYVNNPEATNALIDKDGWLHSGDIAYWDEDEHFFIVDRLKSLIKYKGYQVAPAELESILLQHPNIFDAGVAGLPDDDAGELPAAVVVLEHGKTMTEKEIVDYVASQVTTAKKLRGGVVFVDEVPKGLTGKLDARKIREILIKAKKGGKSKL
row,SMILES,Potency
1,Cc1cccc(OCC(=O)O/N=C(\N)c2ccccn2)c1C,active: 9.53 µM
2,CCS(=O)(=O)Nc1c(C(=O)O)[nH]c2ccccc12,"inconclusive: 37.9 µM [inhibitor, single point]"
3,CCCCn1nnc(NC(=O)c2ccc(-c3ccccc3)cc2)n1,"inconclusive: 3.01 µM [inhibitor, partial curve, poor fit]"
4,COc1ccc(OCC(=O)NC(Cc2c[nH]c3ccccc23)C(=O)O)cc1 (stereo unspecified),inactive
5,CCc1ccccc1NC(=O)CC1SCCNC1=O (stereo unspecified),inactive
6,O=C(COC(=O)c1cc(-c2ccccc2)nc2ccccc12)Nc1ccc2c(c1)OCO2,"inconclusive: 23.9 µM [inhibitor, partial curve, poor fit]"
7,COCc1cc(C)nc2sc(C(=O)NC3CCCCC3)c(N)c12,active: 16.9 µM
8,CCCCC(=O)OCc1cn(-c2ccc(Cl)cc2)nn1,"inconclusive: 37.9 µM [inhibitor, partial curve, poor fit]"
9,COc1ccccc1-c1nnc(SCC(=O)Nc2nc(-c3ccccc3)cs2)n1C,"inconclusive: 19 µM [inhibitor, partial curve]"
10,Cc1ccc(C)c(NS(=O)(=O)c2ccc3oc(=O)c4ncn(C)c4c3c2)c1,inactive
11,CCOC(=O)Cc1csc(NC(=O)c2ccc(Br)o2)n1,"inconclusive: 21.3 µM [inhibitor, partial curve, poor fit]"
12,CCCCc1ccc(NC(=O)CSCc2cc(=O)[nH][nH]2)cc1,active: 12 µM
13,O=C(CCC1CCCCC1)Nc1ccccc1-c1ccccc1,inactive
14,COc1cc(/C=N/N2C(=O)CSC2=S)cc(Br)c1O,"inconclusive: 37.9 µM [inhibitor, single point]"
15,COC(=O)c1ccccc1NC(=O)Oc1ccc(C(C)C)cc1,"inconclusive: 33.8 µM [inhibitor, partial curve, poor fit]"
16,CCn1c(=O)c2sccc2n2c(CCC(=O)Nc3ccc(C(C)C)cc3)nnc12,inactive
17,CCCNC(=O)CN1C(=O)NC(c2ccccc2)(c2ccccc2)C1=O,inactive
18,COc1ccccc1OCc1nc2ccccc2n1C,"inconclusive: 16.9 µM [inhibitor, partial curve]"
19,Cc1ccc(-c2nn[nH]n2)cc1Cl,active: 16.9 µM
20,CN1CCN(C(=S)Nc2ccc(S(N)(=O)=O)cc2)CC1,inactive
21,O=C(c1cc(-c2ccncc2)nc2ccccc12)N1CCN(c2ccccc2O)CC1,"inconclusive: 21.3 µM [inhibitor, partial curve, poor fit]"
22,O=C(Cc1ccccc1)Nc1ccc(Cl)cn1,inactive
23,COc1cc(/C=C2/SC(=S)N(CC3CCCO3)C2=O)ccc1O (stereo unspecified),active: 10.7 µM
24,COc1ccc(/C=C2/SC(=S)N(CCC(=O)N3CCN(C)CC3)C2=O)cc1,"inconclusive: 8.49 µM [inhibitor, partial curve]"
25,Clc1ccc(/C=C/c2nc3ccccc3[nH]2)c(Cl)c1,active: 0.0675 µM
26,COc1ccc(C(=O)NCCOc2cccc(Oc3ccccc3)c2)cc1OC,"inconclusive: 42.6 µM [inhibitor, partial curve, poor fit]"

row,SMILES,Potency
1,CCOC(=O)N1CCC(NC(=O)c2cnn3ccccc23)CC1,inactive
2,c1ccc(-c2cnc(-c3cccnc3)o2)cc1,active: 15.1 µM
3,Cn1c(COc2ccc3ccccc3c2)nnc1SCC(N)=O,"inconclusive: 26.9 µM [inhibitor, single point]"
4,CCCOc1ccc(C(=O)NC(=S)NCc2cccnc2)cc1,"inconclusive: 30.1 µM [inhibitor, single point]"
5,CCCOC(=O)c1ccc(NC(=O)c2ccccc2[N+](=O)[O-])cc1,"inconclusive: 26.9 µM [inhibitor, partial curve, poor fit]"
6,Clc1cccc(-n2ncc3c(NCCCN4CCOCC4)ncnc32)c1,"inconclusive: 19 µM [inhibitor, single point]"
7,Cc1ccccc1C(=O)Nc1nnc(SC(C)C)s1,"inconclusive: 37.9 µM [inhibitor, single point]"
8,COc1ccc(Nc2nc(-c3cccs3)nc3ccccc23)cc1,"inconclusive: 26.9 µM [inhibitor, single point]"
9,COc1ccc(/C=C2\C(=O)NC(=S)N2C(=O)c2ccc(C)cc2)cc1,"inconclusive: 26.9 µM [inhibitor, single point]"
10,Oc1ccc(-c2csc(Nc3cccc4ccccc34)n2)cc1O,"inconclusive: 21.3 µM [inhibitor, partial curve, poor fit]"
11,CC1CCN(C(=O)CSc2nnc(NC(=O)Nc3ccccc3)s2)CC1,"inconclusive: 23.9 µM [inhibitor, partial curve, poor fit]"
12,CS(=O)(=O)Nc1cccc(C2=NN(S(C)(=O)=O)C(c3ccccc3)C2)c1 (stereo unspecified),inactive
13,COc1cc(C(=O)Nc2cc(-c3ccccc3)[nH]n2)cc(OC)c1OC,"inconclusive: 33.8 µM [inhibitor, single point]"
14,COC(=O)c1ccccc1NC(=O)Cn1c(CCC(=O)O)ccc1-c1ccc(C)cc1,"inconclusive: 21.3 µM [inhibitor, partial curve, poor fit]"
15,C[C@H]1CC[C@]2(O[C@H](CCO)C[C@@H](O)[C@@H]2O)O1,inactive
16,NS(=O)(=O)c1ccc(NC(=O)c2ccc(S(=O)(=O)N3CCOCC3)o2)cc1,inactive
17,CC(=O)c1cccc(NC(=O)COC(=O)c2ccccn2)c1,"inconclusive: 37.9 µM [inhibitor, partial curve, poor fit]"
18,C=CCN1C(=O)C(Cc2cccc(Cl)c2)SC1=Nc1ccc(C(=O)O)cc1 (stereo unspecified),"inconclusive: 37.9 µM [inhibitor, single point]"
19,Cn1c(=O)cc(SCC(=O)NCc2ccco2)c2ccccc21,inactive
20,COc1ccc2c(c1)O/C(=C\c1ccccc1C)C2=O,active: 13.5 µM
21,CCOc1ccccc1NC(=O)CSc1ccc2nc(-c3ccccc3)cn2n1,"inconclusive: 30.1 µM [inhibitor, partial curve, poor fit]"
22,C=CCNc1nc(-c2sc(NC(=O)CC)nc2C)cs1,"inconclusive: 26.9 µM [inhibitor, partial curve]"
23,Cc1ccc(S(=O)(=O)N2CCOCC2)cc1C(=O)N1CCN(c2ncccn2)CC1,inactive
24,O=C(Nc1nnc(-c2ccc(Cl)s2)o1)C1CC1,"inconclusive: 30.1 µM [inhibitor, single point]"
25,Cn1c(=O)c2c(nc(CN3CCN(c4ccccc4)CC3)n2Cc2ccccc2Cl)n(C)c1=O,inactive
26,CC(=O)c1cccc(Nc2cc(C)nc3c(C)cc(C)cc23)c1,inactive

row,SMILES,Potency
1,Cc1cc(OCCN2CCOCC2)ccc1[N+](=O)[O-],"inconclusive: 30.1 µM [inhibitor, single point]"
2,O=C(CSc1ccc(-c2nc3ccccc3[nH]2)cn1)N1CCN(C(=O)c2ccco2)CC1,active: 10.7 µM
3,Cc1cc(/C=C(\C#N)C(=O)N2CCCCC2)cc(C)c1O,"inconclusive: 37.9 µM [inhibitor, partial curve, poor fit]"
4,CCOC(=O)N1CCN(C(=O)c2cc3cc(OC)c(OC)cc3[nH]2)CC1,inactive
5,O=C(NCc1cccs1)c1ccncc1,inactive
6,O=c1cc[nH]c2c(Cl)cccc12,"inconclusive: 23.9 µM [inhibitor, partial curve]"
7,CCc1ccc(NC(=O)CCCc2nnc3n(CCCOC)c(=O)c4sccc4n23)cc1,inactive
8,CCC/C(=N\NC(=O)c1ccc(OC)c(OC)c1)c1ccccc1,inactive
9,CC(C)=CC1C=C(C)C(C)C2C(=O)NNC(=O)C12 (stereo unspecified),inactive
10,CN/N=C(\Cc1nc2ccccc2[nH]1)c1ccc([N+](=O)[O-])cc1,active: 16.9 µM
11,COc1ccc(C)cc1NC(=S)NNC(=O)c1ccccc1Cl,"inconclusive: 26.9 µM [inhibitor, single point]"
12,CC(=O)Nc1cccc(-c2nc3ccccc3[nH]2)c1,"inconclusive: 26.9 µM [inhibitor, partial curve]"
13,O=C(Nc1cccc(-c2nn[nH]n2)c1)c1cccs1,"inconclusive: 3.79 µM [inhibitor, partial curve, poor fit]"
14,O=c1sc2ccccc2n1CCOc1ccccc1,active: 13.5 µM
15,O=C(O)c1ccc(CSCc2ccco2)cc1,"inconclusive: 26.9 µM [inhibitor, partial curve, poor fit]"
16,CN(C)C(CNC(=O)c1ccc2c(=O)n(-c3ccccc3F)c(=S)[nH]c2c1)Cc1ccccc1 (stereo unspecified),inactive
17,O=c1[nH]c(CO)nc2c1oc1ccccc12,"inconclusive: 37.9 µM [inhibitor, partial curve, poor fit]"
18,CCOC(=O)C1CCN(C(=O)CSc2n[nH]c(-c3ccc(OC)cc3)n2)CC1,"inconclusive: 21.3 µM [inhibitor, partial curve, poor fit]"
19,O=C(Nc1ccc(Br)cn1)c1cccc(-c2cc3ccccc3oc2=O)c1,active: 12 µM
20,CCC(C)NC(=O)Nc1ccc(Br)cc1 (stereo unspecified),"inconclusive: 23.9 µM [inhibitor, partial curve]"
21,Cc1nn(C2CCS(=O)(=O)C2)c(Cl)c1/C=C/C(=O)OCC(=O)c1cc(C)n(-c2ccc(F)cc2)c1C (stereo unspecified),inactive
22,Cn1c(=O)n(C)c2cc(N3CCOCC3)c(NS(=O)(=O)c3ccc(Cl)cc3)cc21,inactive
23,Cc1ccc(OCc2n[nH]c(=S)n2-c2ccccc2)cc1,"inconclusive: 26.9 µM [inhibitor, partial curve, poor fit]"
24,COc1ccc(CCNC(=O)Cn2c(-c3ccc(F)cc3)cc(C(C)=O)c2C)cc1OC,inactive
